Test results as given in paper PMC3669356.
These are yes or no findings as the source states them, for the method shown. Some binding calls cover weakened binding; strength is not graded here. For some assays here: Tags and fused reporters may be left off the sequences shown.

By UniProt entry, the sequences of proteins in these tests, tags left out. Where a name states a change or a piece, a line headed by the entry shows the natural chain unless it says otherwise. Residues count along the entry.
UniProt Q9QZH4: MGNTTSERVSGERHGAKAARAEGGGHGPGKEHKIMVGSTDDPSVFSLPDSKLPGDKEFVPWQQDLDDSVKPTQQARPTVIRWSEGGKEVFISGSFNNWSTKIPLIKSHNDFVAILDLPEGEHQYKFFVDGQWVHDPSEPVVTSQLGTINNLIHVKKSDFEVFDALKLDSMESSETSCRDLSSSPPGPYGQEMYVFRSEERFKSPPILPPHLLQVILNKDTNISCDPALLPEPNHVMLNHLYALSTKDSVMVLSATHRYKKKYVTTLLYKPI
N-terminal domain of AMPK β2-subunit (Δβ2, amino acids 1–54), Split-Trp-Y2H fusion: residues 1-54 of Q9QZH4
UniProt P04906: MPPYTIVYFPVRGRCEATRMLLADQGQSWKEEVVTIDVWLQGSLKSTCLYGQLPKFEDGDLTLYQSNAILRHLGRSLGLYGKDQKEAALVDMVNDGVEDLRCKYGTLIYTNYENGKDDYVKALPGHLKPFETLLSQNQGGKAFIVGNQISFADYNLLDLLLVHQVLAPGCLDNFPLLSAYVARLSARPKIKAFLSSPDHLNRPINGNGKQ

B1: rat GSTM1, Cyto-Y2H fusion (enzyme, UniProt P04905 1-218)
chain: MPMILGYWNVRGLTHPIRLLLEYTDSSYEEKRYAMGDAPDYDRSQWLNEKFKLGLDFPNLPYLIDGSRKITQSNAIMRYLARKHHLCGETEEERIRADIVENQVMDNRMQLIMLCYNPDFEKQKPEFLKTIPEKMKLYSEFLGKRPWFAGDKVTYVDFLAYDILDQYHIFEPKCLDAFPNLKDFLARFEGLKKISAYMKSSRYLSTPIFSKLAQWSNK
B2: rat GSTM1, Split-Trp-Y2H fusion (enzyme, UniProt P04905 1-218)
chain: B1 chain

What was measured:
[1] = biological target: AMPK β2-subunit, Cyto-Y2H fusion (rat) (UniProt Q9QZH4); experiment: two-hybrid; Cyto-Y2H (split ubiquitin, cytosolic, transcriptional read-out); growth on SD-AHWL, 72 h at 30°C; Figure 2A
[2] = biological target: Large T Antigen of Simian Virus (amino acids 84–704), Cyto-Y2H fusion (Simian Virus) (UniProt P03070); experiment: as above
[3] = biological target: N-terminal domain of AMPK β2-subunit (Δβ2, amino acids 1–54), Cyto-Y2H fusion (rat) (UniProt Q9QZH4); experiment: as above
[4] = biological target: AMPK β2-subunit, Cyto-Y2H fusion (rat) (UniProt Q9QZH4); experiment: two-hybrid; Cyto-Y2H with GST-Sj in the other orientation (bait instead of prey or the reverse); data not shown
[5] = biological target: N-terminal domain of AMPK β2-subunit (Δβ2, amino acids 1–54), Cyto-Y2H fusion (rat) (UniProt Q9QZH4); experiment: as above
[6] = biological target: AMPK β2-subunit, Split-Trp-Y2H fusion (rat) (UniProt Q9QZH4); experiment: two-hybrid; Split-Trp-Y2H (reconstitution of Trp1p); growth on SD-UWL, up to 9 days at 27°C; Figure 2B
[7] = biological target: Large T Antigen of Simian Virus (amino acids 84–704), Split-Trp-Y2H fusion (Simian Virus) (UniProt P03070); experiment: as above
[8] = biological target: N-terminal domain of AMPK β2-subunit (Δβ2, amino acids 1–54), Split-Trp-Y2H fusion (rat) (UniProt Q9QZH4); experiment: as above
[9] = biological target: AMPK β2-subunit, Split-Trp-Y2H fusion (rat) (UniProt Q9QZH4); experiment: two-hybrid; Split-Trp-Y2H with GST-Sj in the other orientation (bait instead of prey or the reverse); data not shown
[10] = biological target: N-terminal domain of AMPK β2-subunit (Δβ2, amino acids 1–54), Split-Trp-Y2H fusion (rat) (UniProt Q9QZH4); experiment: as above

Molecule	binding [1]	binding [2]	binding [3]	binding [6]	binding [7]	binding [8]	further results
rat GSTP1, Cyto-Y2H fusion (from UniProt P04906 1-210) (enzyme)	binds	no binding	binds				
GST-Sj, Cyto-Y2H fusion (from UniProt P08515 1-218) (enzyme)	binds		binds				binding [4]: binds; binding [5]: binds
rat GSTP1, Split-Trp-Y2H fusion (from UniProt P04906 1-210) (enzyme)				binds	no binding	binds	
GST-Sj, Split-Trp-Y2H fusion (from UniProt P08515 1-218) (enzyme)				binds		binds	binding [9]: binds; binding [10]: binds
B1	binds	no binding	binds				
B2				binds	no binding	binds	
